Laboratory results: the supplement of paper PMC6657886

Assays:
Test in all cases: Agar dilution on enriched GC agar; resistance determinants by microarray.
ceftriaxone = compound: CO/N=C(\C(=O)N[C@@H]1C(=O)N2C(C(=O)O)=C(CSc3nc(=O)c(O)nn3C)CS[C@H]12)c1csc(N)n1 [ceftriaxone]
spectinomycin = compound: CN[C@@H]1[C@H](O)[C@H](NC)[C@H]2O[C@@]3(O)C(=O)C[C@@H](C)O[C@H]3O[C@@H]2[C@H]1O [spectinomycin]
benzylpenicillin = compound: CC1(C)S[C@@H]2[C@H](NC(=O)Cc3ccccc3)C(=O)N2[C@H]1C(=O)O [benzylpenicillin]
tetracycline = compound: CN(C)[C@@H]1C(O)=C(C(N)=O)C(=O)[C@@]2(O)C(O)=C3C(=O)c4c(O)cccc4[C@@](C)(O)[C@H]3C[C@@H]12 [tetracycline]
azithromycin = compound: CC[C@H]1OC(=O)[C@H](C)[C@@H](O[C@H]2C[C@@](C)(OC)[C@@H](O)[C@H](C)O2)[C@H](C)[C@@H](O[C@@H]2O[C@H](C)C[C@H](N(C)C)[C@H]2O)[C@](C)(O)C[C@@H](C)CN(C)[C@H](C)[C@@H](O)[C@]1(C)O [azithromycin]

Neisseria gonorrhoeae isolate 256 (blaTEM plasmid: no, gyrA: wild type, mtrR promoter: wild type, parC: wild type, penA: ins345Asp, ponA: wild type, porB: Asn120, Asp121, rpsJ: Met57, tetM plasmid: no)
MIC (ceftriaxone): 0.03 µg/mL | MIC (spectinomycin): 8 µg/mL | MIC (benzylpenicillin): 0.06 µg/mL | MIC (tetracycline): 0.25 µg/mL | MIC (azithromycin): 0.03 µg/mL

Neisseria gonorrhoeae isolate 211 (blaTEM plasmid: no, gyrA: wild type, mtrR promoter: wild type, parC: wild type, penA: wild type, ponA: wild type, porB: wild type, rpsJ: wild type, tetM plasmid: no)
MIC (ceftriaxone): ≤ 0.002 µg/mL | MIC (spectinomycin): 32 µg/mL | MIC (benzylpenicillin): 0.03 µg/mL | MIC (tetracycline): 0.25 µg/mL | MIC (azithromycin): 0.03 µg/mL

Neisseria gonorrhoeae isolate 348 (blaTEM plasmid: no, gyrA: wild type, mtrR promoter: wild type, parC: wild type, penA: wild type, ponA: wild type, porB: wild type, rpsJ: wild type, tetM plasmid: no)
MIC (ceftriaxone): ≤ 0.002 µg/mL | MIC (spectinomycin): 32 µg/mL | MIC (benzylpenicillin): ≤ 0.015 µg/mL | MIC (tetracycline): 0.25 µg/mL | MIC (azithromycin): 0.25 µg/mL

Neisseria gonorrhoeae isolate 462 (blaTEM plasmid: no, gyrA: Phe91, Asn95, mtrR promoter: -35delA, parC: wild type, penA: ins345Asp, ponA: Pro421, porB: Asn120, Asp121, rpsJ: Met57, tetM plasmid: no)
MIC (ceftriaxone): 0.015 µg/mL | MIC (spectinomycin): 16 µg/mL | MIC (benzylpenicillin): 0.5 µg/mL | MIC (tetracycline): 1 µg/mL | MIC (azithromycin): 0.25 µg/mL

Neisseria gonorrhoeae isolate 351 (blaTEM plasmid: no, gyrA: Thr91, Gly95, mtrR promoter: wild type, parC: wild type, penA: ins345Asp, ponA: wild type, porB: wild type, rpsJ: wild type, tetM plasmid: no)
MIC (ceftriaxone): 0.004 µg/mL | MIC (spectinomycin): 32 µg/mL | MIC (benzylpenicillin): 0.12 µg/mL | MIC (tetracycline): 0.06 µg/mL | MIC (azithromycin): 0.06 µg/mL

Neisseria gonorrhoeae isolate 307 (blaTEM plasmid: no, gyrA: Phe91, Asn95, mtrR promoter: wild type, parC: Arg87, Glu91, penA: ins345Asp, ponA: wild type, porB: Asp120, Gly121, rpsJ: Met57, tetM plasmid: no)
MIC (ceftriaxone): ≤ 0.002 µg/mL | MIC (spectinomycin): 32 µg/mL | MIC (benzylpenicillin): ≤ 0.015 µg/mL | MIC (tetracycline): 0.5 µg/mL | MIC (azithromycin): 0.12 µg/mL

Neisseria gonorrhoeae isolate 13 (blaTEM plasmid: no, gyrA: Phe91, Gly95, mtrR promoter: -35delA, parC: Arg87, Glu91, penA: ins345Asp, ponA: Pro421, porB: Asp120, Ala121, rpsJ: Met57, tetM plasmid: no)
MIC (ceftriaxone): ≤ 0.002 µg/mL | MIC (spectinomycin): 8 µg/mL | MIC (benzylpenicillin): 0.5 µg/mL | MIC (tetracycline): 1 µg/mL | MIC (azithromycin): 0.5 µg/mL

Neisseria gonorrhoeae isolate 349 (blaTEM plasmid: no, gyrA: Thr91, Gly95, mtrR promoter: wild type, parC: wild type, penA: ins345Asp, ponA: wild type, porB: Gly120, Ser121, rpsJ: Met57, tetM plasmid: no)
MIC (ceftriaxone): ≤ 0.002 µg/mL | MIC (spectinomycin): 16 µg/mL | MIC (benzylpenicillin): 0.12 µg/mL | MIC (tetracycline): 0.5 µg/mL | MIC (azithromycin): 0.03 µg/mL

Neisseria gonorrhoeae isolate 384 (blaTEM plasmid: no, gyrA: wild type, mtrR promoter: wild type, parC: wild type, penA: wild type, ponA: wild type, porB: wild type, rpsJ: wild type, tetM plasmid: no)
MIC (ceftriaxone): ≤ 0.002 µg/mL | MIC (spectinomycin): 16 µg/mL | MIC (benzylpenicillin): ≤ 0.015 µg/mL | MIC (tetracycline): 0.12 µg/mL | MIC (azithromycin): 0.12 µg/mL

Neisseria gonorrhoeae isolate 152 (blaTEM plasmid: no, gyrA: Thr91, Gly95, mtrR promoter: wild type, parC: wild type, penA: ins345Asp, ponA: wild type, porB: wild type, rpsJ: wild type, tetM plasmid: no)
MIC (ceftriaxone): ≤ 0.002 µg/mL | MIC (spectinomycin): 8 µg/mL | MIC (benzylpenicillin): 0.12 µg/mL | MIC (tetracycline): 0.12 µg/mL | MIC (azithromycin): 0.06 µg/mL

Neisseria gonorrhoeae isolate 505 (blaTEM plasmid: no, gyrA: Phe91, Asn 95, mtrR promoter: -35delA, parC: Arg 87, Glu91, penA: ins345Asp, ponA: wild type, porB: Asp120, Ala121, rpsJ: wild type, tetM plasmid: no)
MIC (ceftriaxone): 0.008 µg/mL | MIC (spectinomycin): 16 µg/mL | MIC (benzylpenicillin): 0.5 µg/mL | MIC (tetracycline): 2 µg/mL | MIC (azithromycin): 0.25 µg/mL

Neisseria gonorrhoeae isolate 238 (blaTEM plasmid: no, gyrA: Phe91, Asp95, mtrR promoter: wild type, parC: wild type, penA: ins345Asp, ponA: Pro421, porB: Asp120, Ala121, rpsJ: Met57, tetM plasmid: no)
MIC (ceftriaxone): 0.008 µg/mL | MIC (spectinomycin): 16 µg/mL | MIC (benzylpenicillin): 1 µg/mL | MIC (tetracycline): 1 µg/mL | MIC (azithromycin): 0.06 µg/mL

Neisseria gonorrhoeae isolate 312 (blaTEM plasmid: no, gyrA: wild type, mtrR promoter: wild type, parC: wild type, penA: ins345Asp, ponA: wild type, porB: wild type, rpsJ: wild type, tetM plasmid: no)
MIC (ceftriaxone): ≤ 0.002 µg/mL | MIC (spectinomycin): 32 µg/mL | MIC (benzylpenicillin): 0.12 µg/mL | MIC (tetracycline): 0.12 µg/mL | MIC (azithromycin): 0.008 µg/mL

Neisseria gonorrhoeae isolate 451 (blaTEM plasmid: no, gyrA: Phe91, Gly95, mtrR promoter: -35delA, parC: Arg87, Glu91, penA: ins345Asp, ponA: wild type, porB: wild type, rpsJ: Met57, tetM plasmid: no)
MIC (ceftriaxone): ≤ 0.002 µg/mL | MIC (spectinomycin): 16 µg/mL | MIC (benzylpenicillin): 0.03 µg/mL | MIC (tetracycline): 0.25 µg/mL | MIC (azithromycin): 0.06 µg/mL

Neisseria gonorrhoeae isolate 207 (blaTEM plasmid: no, gyrA: Thr91, Gly95, mtrR promoter: wild type, parC: wild type, penA: wild type, ponA: wild type, porB: wild type, rpsJ: wild type, tetM plasmid: no)
MIC (ceftriaxone): ≤ 0.002 µg/mL | MIC (spectinomycin): 16 µg/mL | MIC (benzylpenicillin): 0.12 µg/mL | MIC (tetracycline): 0.5 µg/mL | MIC (azithromycin): 0.03 µg/mL

Neisseria gonorrhoeae isolate 94 (blaTEM plasmid: no, gyrA: wild type, mtrR promoter: -35delA, parC: wild type, penA: ins345Asp, ponA: wild type, porB: wild type, rpsJ: wild type, tetM plasmid: no)
MIC (ceftriaxone): ≤ 0.002 µg/mL | MIC (spectinomycin): 16 µg/mL | MIC (benzylpenicillin): ≤ 0.015 µg/mL | MIC (tetracycline): 0.25 µg/mL | MIC (azithromycin): 0.06 µg/mL

Neisseria gonorrhoeae isolate 263 (blaTEM plasmid: no, gyrA: wild type, mtrR promoter: wild type, parC: wild type, penA: ins345Asp, ponA: wild type, porB: wild type, rpsJ: wild type, tetM plasmid: no)
MIC (ceftriaxone): 0.004 µg/mL | MIC (spectinomycin): 32 µg/mL | MIC (benzylpenicillin): 0.12 µg/mL | MIC (tetracycline): 0.25 µg/mL | MIC (azithromycin): 0.015 µg/mL

Neisseria gonorrhoeae isolate 413 (blaTEM plasmid: no, gyrA: wild type, mtrR promoter: -35delA, parC: wild type, penA: wild type, ponA: wild type, porB: wild type, rpsJ: wild type, tetM plasmid: no)
MIC (ceftriaxone): 0.004 µg/mL | MIC (spectinomycin): 16 µg/mL | MIC (benzylpenicillin): 0.03 µg/mL | MIC (tetracycline): 0.25 µg/mL | MIC (azithromycin): 0.12 µg/mL

Neisseria gonorrhoeae isolate 129 (blaTEM plasmid: no, gyrA: wild type, mtrR promoter: wild type, parC: wild type, penA: ins345Asp, ponA: wild type, porB: wild type, rpsJ: Met57, tetM plasmid: no)
MIC (ceftriaxone): ≤ 0.002 µg/mL | MIC (spectinomycin): 8 µg/mL | MIC (benzylpenicillin): 0.03 µg/mL | MIC (tetracycline): 1 µg/mL | MIC (azithromycin): 0.06 µg/mL

Neisseria gonorrhoeae isolate 116 (blaTEM plasmid: no, gyrA: wild type, mtrR promoter: wild type, parC: wild type, penA: ins345Asp, ponA: wild type, porB: wild type, rpsJ: wild type, tetM plasmid: no)
MIC (ceftriaxone): ≤ 0.002 µg/mL | MIC (spectinomycin): 16 µg/mL | MIC (benzylpenicillin): 0.03 µg/mL | MIC (tetracycline): 0.5 µg/mL | MIC (azithromycin): 0.06 µg/mL

MIC of clinical N. gonorrhoeae isolates (2015-2017) by agar dilution on GC agar with 1% IsoVitaleX (ranges not stated); higher = less susceptible. No active / inactive call per row; the paper counts benzylpenicillin above 1 and ceftriaxone above 0.125 mg/L as resistant (EUCAST). The method is stated for benzylpenicillin and ceftriaxone and assumed for the other drugs. '<=' is inferred from pile-ups at the end values. Isolates are numbered anew.
